Measurements from PubChem BioAssay (NCI).
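Briefly, cells in 96-well plates were exposed to five compound concentrations for 48 h, and endpoints were estimated by linear interpolation. GI50 = concentration required for 50% inhibition of growth. TGI denotes the concentration required for complete inhibition of growth.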 Bridge positions count the residues as written; N and C are the ends. Square brackets hold non-standard residues; d marks the D form. Peptide text beside a SMILES is read from it. * marks the point of attachment. Phe(3,5-F2) = N[C@@H](Cc1cc(F)cc(F)c1)C(=O)O; Pro(4R-Me) = C[C@H]1CN[C@H](C(=O)O)C1; aThr = C[C@H](O)[C@H](N)C(=O)O; Pip = O=C(O)[C@@H]1CCCCN1; X6 = CCC/C=C/C=C/C(=O)*

Test system: NCI-H322M lung
Experiment: inhibition of tumour cell growth, NCI panel, 48 h

CCC/C=C/C=C/C(=O)N[C@@H](Cc1cc(F)cc(F)c1)C(=O)N[C@@H]1C(=O)N2CCC[C@H]2C(=O)N2CCCC[C@H]2C(=O)N[C@@H](C)C(=O)N2C[C@H](C)C[C@H]2C(=O)O[C@H]1C (X6-[Phe(3,5-F2)][aThr]P[Pip]A[Pro(4R-Me)]; ester 2-C)
GI50: 1980 nM | TGI: 49100 nM

C#CCN(C)CCCOc1ccc(NCc2ccc(C(=O)NO)cc2)cc1Cl
GI50: 2880 nM | TGI: 27800 nM

CN1CCN(Cc2ccc(NC(=O)c3cncc(C#Cc4cnc5ccc(OCC6COC6)nn45)c3)cc2C(F)(F)F)CC1
GI50: 234 nM | TGI: 933 nM
